Screen size: about 380,000 compounds; about 4,000 (1.1%) were called active. Inconclusive means that the source gave no clear call. Such entries were picked first, then a sample of the others. Calls come from the whole dose curve; as a rule, active = well fitted activation curve with a large enough effect; inconclusive = small, poorly fitted or top-dose-only effect; inactive = no such curve, though single readings can be large or run the other way. A potency beside an inconclusive call is a rough fit, not a confirmed value.
Assay: qHTS Assay to Identify Small Molecule Activators of BRCA1 Expression; note: nearly all actives have a fitted effect of over 80% in size
Conditions: MCF7-BRCA1-FFLuc reporter, luminescence, 48 h; activation: at 46.1 µM (top of the series), scaled: vehicle 0%, 10 µM genistein 100% unless noted
Method in brief: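 Compounds are tested at multiple concentrations on MCF7 BRCA1-luciferase reporter cells seeded at 2000 per well; after 48 h, a single luminescence end-point is taken and curves fitted to the normalized data.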
Potency is the fitted concentration of half-maximal effect; tags give direction and shape of the fitted curve.

Compound | activation | Potency
CCOc1ccc(NC(=O)CNC(=O)Cc2ccccc2)cc1 | inactive: 0% | 
COC(=O)N1N=C(c2ccccc2)CC1(O)C(F)(F)F (centres undefined) |  | active: 11.2 µM
O=C(O)c1ccc(N=NN2CCCCCC2)cc1 |  | inconclusive: 1.58 µM [activator, partial curve, poor fit]
CC(=O)Cn1nnc2sc(-c3ccccc3)cc2c1=O |  | inconclusive: 2.51 µM [activator, full curve, poor fit]
CCN1/C(=C2\OC(=S)N(C)C2=O)Sc2ccccc21 |  | inconclusive: 8.91 µM [activator, partial curve, poor fit]
CC(=O)Nc1cnc(-c2cc(C)c(O)c(C)c2)cn1 |  | active: 8.91 µM
COCCC1CCCCN1C(=O)c1ccc2nc(Cc3ccccc3F)oc2c1 (centres undefined) |  | active: 7.94 µM
O=C(Nc1ccc2nc3n(c(=O)c2c1)CCCC3)c1ccccc1F |  | inconclusive: 10 µM [activator, partial curve, poor fit]
COc1cc(SC)ccc1C(=O)Nc1ccc(Br)cn1 | inconclusive: 42.7% [activator] | 
O=C(Nc1ccc(/C=C/c2nc3ccccc3o2)cc1)c1ccc(F)cc1 |  | inconclusive: 1.26 µM [activator, full curve, poor fit]
Cc1ccc(C(=O)CN2C(=O)C(C)Oc3ccccc32)cc1 (centres undefined) |  | active: 11.2 µM
CC(=O)Nc1ccc(/C=C/c2ccc3c([N+](=O)[O-])cccc3n2)cc1 |  | inconclusive: 2.51 µM [activator, full curve, poor fit]
Cc1cc2nc3c(=O)n(CCc4ccccc4)c(=O)[nH]c3nc2cc1N | inactive: 5.64% | 
Cc1cc(C)n2cc(COc3ccc4ccccc4c3)nc2n1 |  | inconclusive: 1 µM [activator, full curve, poor fit]
CCc1cc(C(=O)Nc2nnc(C3CC3)s2)sc1C |  | inconclusive: 11.2 µM [activator, partial curve, poor fit]
COc1ccc(C(=O)O/N=C(\N)c2ccccn2)cc1 | inconclusive: -88.5% [activator] | 
CC(C)CCNC(=O)c1ccc2c(Cl)c3c(nc2c1)CCC3 |  | inconclusive: 2.51 µM [activator, partial curve, poor fit]
CC(=O)Nc1cccc(/C(C)=N/NC(=O)c2ccc3c(c2)OCO3)c1 |  | inconclusive: 7.94 µM [activator, partial curve, poor fit]
O=C(Nc1cccc([N+](=O)[O-])c1)Nc1ccc2c(c1)OCCO2 |  | inconclusive: 2.51 µM [activator, partial curve, poor fit]
Cn1sc(NC(=O)c2cccc(Cl)c2)nc1=O |  | inconclusive: 12.6 µM [activator, partial curve, poor fit]
O=c1c2sc(-c3ccccc3)cc2nc2n1CCCCC2 |  | inconclusive: 2 µM [activator, partial curve, poor fit]
CC(C)(C)c1ccc(-c2noc(CCC(=O)Nc3cccnc3)n2)cc1 | inconclusive: -92.1% [activator] | 
Brc1ccc2nc(N3CCCC3)sc2c1 |  | inconclusive: 1.26 µM [activator, partial curve, poor fit]

Compound | activation | Potency
CC1CCN(C(=O)CCCOc2ccc(Cl)cc2)CC1 |  | inconclusive: 11.2 µM [activator, partial curve, poor fit]
O=C1NCCN/C1=C\C(=O)c1ccc(Br)cc1 |  | inconclusive: 2.24 µM [activator, full curve, poor fit]
Cc1ccc(/C=C2\SC(=O)N(CCC(=O)N3CCN(C)CC3)C2=O)cc1 |  | inconclusive: 11.2 µM [activator, single point]
COC(=O)C1CCN(C(=O)c2ccc3nc(-c4cccc(OC)c4)oc3c2)CC1 |  | inconclusive: 1.41 µM [activator, full curve, poor fit]
O=C(Nc1ccccc1)c1nc[nH]c1C(=O)N1CCN(c2ccccc2)CC1 | inactive: 8.67% | 
CC(=O)N1c2ccc(S(=O)(=O)N3CCC(C(=O)NCc4ccc(Cl)cc4)CC3)cc2CC1C (centres undefined) | inactive: -30.6% | 
Cc1[nH]n(-c2ccccc2)c(=O)c1/C=N/N1CCOCC1 | inactive: 4.39% | 
CCN(C[C@H]1N[C@@](CC)(C(=O)OC)[C@H]2C(=O)N(Cc3ccccc3)C(=O)[C@@H]12)C(=O)c1ccc(C)cc1 | inactive: -3.96% | 
O=C(Nc1ccc(Cl)c(Cl)c1)Nc1ccc(Br)cc1F | inactive: -69.3% | 
O=C(c1cccnc1)N1CCc2ccccc2C1 | inactive: -9.69% | 
O=C(CSCc1ccc(F)cc1)N1CCOCC1 |  | inconclusive: 11.2 µM [activator, partial curve, poor fit]
N#Cc1ccccc1NC(=O)c1cc(=O)c2ccccc2o1 |  | active: 8.91 µM
COc1ccc(/C=C2\CCCCC2=O)cc1 |  | inconclusive: 11.2 µM [activator, partial curve, poor fit]
O=C(c1ccc(N2CCCCC2)c([N+](=O)[O-])c1)N(Cc1ccccc1)c1ccccn1 | inactive: -46.6% | 
CC(C)C[C@@H](CNCC(=O)[C@H](CC(C)C)NC(=O)c1[nH]cnc1C(=O)N[C@@H](C)CN)NC(=O)c1nc[nH]c1C(=O)N[C@@H](C)C(=O)O | inactive: -12.3% | 
CC(=O)/C(C(=N)N1CCN(c2cccc(Cl)c2)CC1)=C(\C)O | inactive: -0.902% | 
Cc1ccn2cc(CSc3ccccc3)nc2c1 |  | inconclusive: 0.891 µM [activator, full curve, poor fit]
CCOc1cccc(N2CCN(CCNC(=O)Nc3ccc(C)cc3)CC2)c1C | inactive: -7.88% | 
c1ccc(SCc2nc3ccccc3[nH]2)cc1 |  | inconclusive: 2 µM [activator, full curve, poor fit]
Cc1nc(-c2ccc(NS(C)(=O)=O)cc2)cs1 |  | inconclusive: 35.5 µM [activator, single point]
O=C(NCCOc1ccccc1)c1ccccc1Cl |  | inconclusive: 2 µM [activator, partial curve, poor fit]
COc1ccc(/C=N/NC(=O)Cc2cccs2)cc1 |  | inconclusive: 11.2 µM [activator, partial curve, poor fit]
CC(=O)c1sc(NC(=O)c2ccccc2F)nc1C |  | inconclusive: 1.58 µM [activator, partial curve, poor fit]

Compound | activation | Potency
COc1ccc(CCN2CCCC(CN(C)C(=O)c3ccoc3)C2)cc1 (centres undefined) |  | inconclusive: 14.1 µM [activator, partial curve, poor fit]
COc1ccc(NC(=O)c2cc3ccccc3[nH]2)cc1 |  | inconclusive: 1.41 µM [activator, full curve, poor fit]
COc1ccccc1NC(=S)NNC(=O)c1ccc(O)cc1 |  | inconclusive: 12.6 µM [activator, partial curve, poor fit]
O=C(CCCCl)Nc1nc(-c2ccc3c(c2)OCCO3)cs1 |  | inconclusive: 1.78 µM [activator, partial curve, poor fit]
N#CCC(=O)NNC(=S)NC(=O)C(c1ccccc1)c1ccccc1 | inactive: 0% | 
CC(C)c1ccc(N=C2NN=C(c3cccs3)CS2)cc1 |  | inconclusive: 0.562 µM [activator, full curve, poor fit]
COc1ccccc1-c1nnc2n1N=C(c1ccc(O)c(O)c1)CS2 | inconclusive: -90.5% [activator] | 
O=C1CCCc2nn(-c3ccccc3)nc21 |  | inconclusive: 15.8 µM [activator, partial curve, poor fit]
O=C(Nc1ccc(-c2nnc(-c3ccccc3)o2)cc1)C(F)(F)F |  | inconclusive: 0.631 µM [activator, full curve, poor fit]
Cc1ccc(S(=O)(=O)CCC(=O)OCC(=O)c2c(N)n(CC(C)C)c(=O)n(C)c2=O)cc1 | inactive: -5.01% | 
Cn1c(NC(=S)Nc2ccccc2)nc2ccccc21 |  | inconclusive: 2.51 µM [activator, partial curve, poor fit]
COc1ccc(C(=O)NC(=S)NCCc2ccccc2)cc1 |  | inconclusive: 12.6 µM [activator, partial curve, poor fit]
COc1cc(OC)cc(C(=O)Nc2ccc(NC(=O)c3ccco3)c(C)c2)c1 |  | inconclusive: 11.2 µM [activator, partial curve, poor fit]
CC(Cc1ccccc1)NC(=O)c1ccc([N+](=O)[O-])cc1 (centres undefined) |  | inconclusive: 1.58 µM [activator, full curve, poor fit]
C/C(=N\NC(=O)c1nn(C)c(C)c1Br)c1ccc(NC(=O)c2ccccc2F)cc1 |  | inconclusive: 7.94 µM [activator, partial curve, poor fit]
CCCN1C(=O)/C(=C2\SC(N3CCCCC3)=NC2=O)c2ccccc21 |  | inconclusive: 2.51 µM [activator, full curve, poor fit]
N/C(=N\OC(=O)c1ccc2c(c1)OCO2)c1ccncc1 |  | active: 4.47 µM
COc1ccc(Nc2nc(C)c3ccccc3n2)cc1 | inactive: 71.7% | 
NC(=O)C1CCN(c2nc(-c3cccc(Cl)c3)cs2)CC1 |  | active: 3.98 µM
COc1ccc(N2C(=O)c3ccccc3NC23CCCC3)cc1 |  | active: 6.31 µM
CC1(C(=O)OCc2cc(=O)n3cc(Br)ccc3n2)CC1(Cl)Cl (centres undefined) |  | inconclusive: 5.01 µM [activator, full curve, poor fit]
COc1ccc(N2CS(=O)(=O)/C(=C/N(C)C)C2=O)cc1 |  | inconclusive: 10 µM [activator, partial curve, poor fit]
COc1ccc(-n2cc(-c3ccccc3)nc2SC)cc1 |  | inconclusive: 11.2 µM [activator, partial curve, poor fit]

Reference: PubChem BioAssay AID624202 (National Center for Advancing Translational Sciences (NCATS), 2012)
